From the supplement of paper PMC12217912
The list shows a part of the results. The full chains were built here from the parent and the listed change. Values near 0.05 are background.

B1: TEV protease; numbered along this chain (parent)
chain: MGESLFKGPRDYNPISSSICHLTNESDGHTTSLYGIGFGPFIITNKHLFRRNNGTLVVQSLHGVFKVKDTTTLQQHLVDGRDMIIIRMPKDFPPFPQKLKFREPQREERICLVTTNFQTKSMSSMVSDTSCTFPSGDGIFWKHWIQTKDGQCGSPLVSTRDGFIVGIHSASNFTNTNNYFTSVPKNFMELLTNQEAQQWVSGWRLNADSVLWGGHKVFMVKPEEPFQPVKEATQL

Variants of: B1
Assay: raw area under fraction-flipped curve 0-4 h after induction (AUC4h, not background-subtracted), DNA-recorder readout of cleavage of the substrate (dimensionless); higher = more cleavage of the substrate by the protease variant
Conditions: temperature: 34 °C; time window: 0-4 h after rhamnose induction
Procedure: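 In vivo DNA recorder in E. coli TOP10(DE3) ΔrhaA at 34 °C. Each TEVp single-site mutant (parent TEVp 0) is paired with a single-site variant of the 7-mer TEVs (canonical ENLYFQ|S). The substrate sits between flexible linkers in a Bxb1-sfGFP-TEVs-SsrA fusion, so cleavage stabilises Bxb1 and speeds flipping of a recombination array, read by NGS. The value is the raw area under the fraction-flipped curve over 0-4 h after rhamnose induction (AUC4h), with ≥20 reads per time point. It is not background-subtracted; inactive controls average about 0.047.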
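Note: Bxb1 expression induced with 0.2% (w/v) L-rhamnose at OD600 near 0.5, cultures sampled hourly, flipped fraction per protease–substrate barcode pair counted by paired-end Illumina sequencing.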

Variant	area with substrate ENLYCQS	area with substrate ENLYDQS	area with substrate ENLYEQS	area with substrate ENLYGQS	area with substrate ENLYHQS	area with substrate ENLYIQS	area with substrate ENLYKQS	area with substrate ENLYMQS	area with substrate ENLYNQS	area with substrate ENLYPQS	area with substrate ENLYQQS	area with substrate ENLYRQS	area with substrate ENLYSQS	area with substrate ENLYTQS	area with substrate ENLYWQS	area with substrate ENLYYQS	area with substrate ENLYLQS	area with substrate ENLYVQS
G28V	0.0565	0.044	0.0692	0.0638	0.061	0.087	0.0235	0.0714	0.0742	0.0623	0.0619	0.0562	0.0604	0.0735	0.062	0.0664		
Y179V	0.0558	0.105	0.0599	0.0642	0.0627		0.0532		0.0561		0.0629					0.0409	0.0586	0.0683
F180D	0.0511	0.0474	0.0555			0.0524	0.0566	0.0496		0.0409	0.0422	0.0557	0.0435	0.0435				0.0787
H143T	0.0657	0.0632	0.0604	0.0767	0.0505	0.0763	0.0539	0.0748	0.063			0.0551	0.0665		0.069	0.0799	0.0596	0.0577
L61Q	0.0808	0.0474	0.0743			0.113	0.0926			0.0697	0.0639	0.0678	0.0689		0.076	0.0717	0.0868	0.112
L61V	0.0681	0.0622	0.0654		0.0773		0.0684	0.0991	0.0684	0.0909		0.0563			0.0824			
I139D	0.0853	0.0624	0.068		0.0732	0.0752	0.0559	0.0674	0.0612	0.0584		0.0527	0.0464		0.0639		0.0667	0.103
M188I	0.0815	0.0693		0.0712			0.0515	0.0797		0.0758	0.0671	0.0684	0.0587	0.0655		0.0912		0.108
V157Y	0.0715	0.0584	0.0556	0.051	0.0571	0.0977	0.0655	0.0686	0.0624	0.0641	0.0502	0.0543	0.0638	0.0429	0.0567	0.0763	0.0718	
H76P	0.0373	0.0447		0.0575	0.0561	0.0527	0.0545	0.0556	0.0555	0.0582	0.0592	0.0574	0.0606	0.0538		0.0583		
I110C	0.0842	0.0639	0.0665	0.056	0.0646	0.138	0.0589	0.085	0.07	0.074	0.0661	0.065	0.0618	0.0995	0.0666	0.0655		0.0962
S17Y	0.107	0.0533	0.0589	0.0607	0.0732	0.124	0.0619	0.0374	0.069	0.0872	0.0823	0.0622	0.0756	0.0793	0.0715	0.0709	0.0874	0.117
I84P	0.0379	0.0505						0.0361	0.0369		0.0294							
T71Y	0.0351	0.0567	0.0684		0.061		0.0696	0.0737	0.0443		0.0578	0.0712			0.0565			0.0932
Q151F	0.0757	0.0511	0.0647		0.0475				0.0668	0.0528	0.0604			0.0672	0.0563			
Q151R	0.0736	0.0654	0.0503	0.0559		0.0974	0.0555	0.0574			0.065	0.0598		0.0346	0.0574	0.0503	0.0733	0.0959
N178F	0.234			0.0685					0.142	0.148			0.0738		0.161			
R87G	0.067	0.0654			0.0504	0.101			0.0592		0.0826							
F173W	0.0794	0.066	0.0756	0.0594	0.0711			0.0652	0.059	0.0717	0.0601	0.0695	0.079	0.0691	0.0732	0.0613	0.0675	0.0779
F41S	0.0773	0.0593	0.054	0.0373	0.0663	0.112	0.0517	0.0619	0.0591	0.0463	0.0634	0.0616	0.0615	0.0573	0.0701			0.0841
F41C	0.0771	0.0621	0.0685	0.0676	0.0637	0.119	0.0587	0.0493	0.0636	0.0724	0.061	0.0697	0.064	0.0785	0.0945	0.0688		
G63C	0.0811	0.0531	0.0649	0.059	0.0685	0.143	0.0688	0.0809	0.0647	0.0725			0.0638	0.0774	0.077	0.0533	0.089	0.0988
I145W	0.0531	0.065	0.0571	0.0586	0.0601	0.0542	0.0385	0.0557		0.0551	0.0373	0.0642		0.0682		0.0549		0.11
T129Y	0.0795	0.0746	0.0698	0.0753		0.11			0.0604			0.0685	0.0429	0.057			0.0693	0.112
D161E	0.062	0.0298	0.0559	0.0606	0.0657	0.0958	0.0575	0.056	0.0642	0.0617	0.0514		0.0719	0.0729	0.0627			0.124
S158R	0.0484		0.038	0.055	0.0442			0.0387	0.0684	0.234	0.0692	0.0499	0.044	0.0557		0.039	0.0528	0.0299
